Assay results taken from article PMC4336329 (PLoS ONE, 2015).
Screen size: about 310,000 compounds; about 2,200 (0.71%) showed an effect of 50% or more. The effect is printed as a negative number. The list shows a part of the results.

target: human ether-à-go-go-related gene (hERG) potassium channel (human, UniProt Q12809); assay: primary screen, population patch clamp on CHO cells stably expressing hERG
Sequence (Q12809 whole entry, looked up): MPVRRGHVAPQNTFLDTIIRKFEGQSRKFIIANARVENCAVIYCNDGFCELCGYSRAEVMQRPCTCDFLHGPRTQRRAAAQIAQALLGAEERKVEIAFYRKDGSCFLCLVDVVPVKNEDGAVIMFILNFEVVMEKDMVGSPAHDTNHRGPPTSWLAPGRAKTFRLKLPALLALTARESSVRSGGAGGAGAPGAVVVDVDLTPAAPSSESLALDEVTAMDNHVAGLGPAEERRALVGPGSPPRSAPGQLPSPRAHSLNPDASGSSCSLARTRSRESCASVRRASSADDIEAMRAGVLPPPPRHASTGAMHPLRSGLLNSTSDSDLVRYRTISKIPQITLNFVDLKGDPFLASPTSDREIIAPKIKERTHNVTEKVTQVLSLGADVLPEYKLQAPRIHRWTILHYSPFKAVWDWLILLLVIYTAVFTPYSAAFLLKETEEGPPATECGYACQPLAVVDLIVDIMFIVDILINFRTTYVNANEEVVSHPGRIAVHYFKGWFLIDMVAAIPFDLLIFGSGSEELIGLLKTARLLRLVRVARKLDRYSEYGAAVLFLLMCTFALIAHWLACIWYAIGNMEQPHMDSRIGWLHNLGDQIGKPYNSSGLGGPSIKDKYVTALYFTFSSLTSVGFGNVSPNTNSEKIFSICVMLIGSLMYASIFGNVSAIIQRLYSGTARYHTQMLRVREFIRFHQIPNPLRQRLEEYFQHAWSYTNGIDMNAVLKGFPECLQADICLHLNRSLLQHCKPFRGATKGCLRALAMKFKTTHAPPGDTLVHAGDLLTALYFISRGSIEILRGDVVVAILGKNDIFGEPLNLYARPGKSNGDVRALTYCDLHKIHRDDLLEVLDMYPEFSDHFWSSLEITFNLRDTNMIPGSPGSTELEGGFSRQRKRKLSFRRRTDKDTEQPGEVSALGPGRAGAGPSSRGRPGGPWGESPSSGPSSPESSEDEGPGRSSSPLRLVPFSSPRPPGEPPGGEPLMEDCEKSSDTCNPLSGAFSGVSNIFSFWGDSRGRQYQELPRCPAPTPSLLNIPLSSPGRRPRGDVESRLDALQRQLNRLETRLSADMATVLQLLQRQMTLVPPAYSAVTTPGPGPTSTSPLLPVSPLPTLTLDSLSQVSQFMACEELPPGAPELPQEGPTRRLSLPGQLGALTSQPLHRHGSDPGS

SMILES	hERG current change (%, negative = inhibition) at 1uM [%]
O=C(Nc1ccc(S(=O)(=O)N2CCOCC2)cc1)c1ccc([N+](=O)[O-])o1	9.23
Cc1c(CC(=O)NCCC(=O)O)c(=O)oc2cc3occ(-c4ccccc4)c3cc12	12.1
COc1ccccc1CCNCc1cc2c(cc1[N+](=O)[O-])OCO2	-0.541
O=C(O)/C(=C\c1ccc(F)cc1)c1ccc(-c2ccccc2)cc1	18.3
O=C(NNC(=S)Nc1cccc(C(F)(F)F)c1)c1ccccc1Cl	2.16
CSc1nc2sccc2c(=O)[nH]1	14.9
Cc1ccc(C)c(NC(=O)CN(C)C(=O)C2CCN(S(=O)(=O)c3ccc4c(c3)OCCO4)CC2)c1	5.83
Cc1c(C)c2cc(Cl)c(OCC(=O)N3CCN(c4ccc(F)cc4)CC3)cc2oc1=O	12.9
O=C1c2cccnc2C(Nc2ccccc2Br)N1Cc1ccco1 (stereo not drawn)	10.2
Cn1nnc2cc(C(=O)Nc3ccc4ccccc4c3)ccc21	9.96
CC(CN1CCCCC1)OC(=O)CCc1ccccc1.Cl (stereo not drawn)	7.8
O=C(NCc1ccco1)C1CCCN1C(=O)NCc1ccccc1 (stereo not drawn)	3.67
COc1ccc(C(C(=O)NC2CCCC2)N(Cc2cccnc2)C(=O)c2snc(C(N)=O)c2N)cc1OC (stereo not drawn)	13.2
CCc1ccc(NC(=O)COC(=O)c2nc3nc(C)cc(C)n3n2)cc1	1.73
O=C(C[n+]1ccn(CCCNP2(=O)C=C(c3ccccc3)OC(c3ccccc3)=C2)c1)c1cccs1.[Br-]	-25.7
Cc1cccc(C(=O)N2CCc3cc(-c4csc(NC(=O)CN5CCCC5)n4)ccc32)c1	9.02
COc1ccc(-c2cc(C(F)F)n3ncc(C(=O)n4ccnc4C)c3n2)cc1	17.8
COc1ncccc1C(=O)NC1CCCc2c1cnn2-c1ccc(C)c(C)c1 (stereo not drawn)	11.8
Cc1cc(C)n2c(SCC#N)nnc2n1	4.09
COc1ccc(NC(C)=O)cc1S(=O)(=O)N1CCN(C/C=C/c2ccccc2)CC1	-48.1
CCC(CC)c1nnc(NC(=O)CCN2C(=O)c3ccccc3C2=O)s1	10.8
COc1ccccc1Nc1nc(N)nc(CSc2ncccn2)n1	-1.02

SMILES	hERG current change (%, negative = inhibition) at 1uM [%]
O=C(c1ccc(Cl)c(S(=O)(=O)N2CCOCC2)c1)N1CCCC1	11.4
Cc1cccc(-n2c(SCC(=O)O)nc3sc4c(c3c2=O)CCCC4)c1	11
CCNc1ccc(Br)cc(C(=O)/C=C/c2ccc3c(c2)OCO3)c1=O	-8.66
O=C(NC(=S)Nc1cccc2c(O)cccc12)c1ccco1	-7.78
O=C(NCC1CCCO1)c1c(O)c2c([nH]c1=O)CCCC2 (stereo not drawn)	11.7
COC(=O)N1C(=O)[C@](CC(C)C)(c2ccccc2)N1C(=O)OC	15.8
Cc1onc(-c2c(F)cccc2Cl)c1C(=O)NCc1ccc(S(N)(=O)=O)cc1	7.29
Cc1ccc(NC(=O)N(Cc2ccco2)C(C)c2ccco2)cc1C (stereo not drawn)	2.29
O=C(O)c1oc2ccccc2c1CN1CCN(c2ccccc2)CC1	4.59
CC(NC(=O)c1ccc([N+](=O)[O-])o1)C12CC3CC(CC(C3)C1)C2 (stereo not drawn)	9.4
CC(C)(C)CC(=O)NCCCCCCNC(=O)CC(C)(C)C	10.6
COc1ccccc1N(C(=O)c1snc(C(N)=O)c1N)C(C(=O)NC1CCCCC1)c1cccc(OC)c1OC (stereo not drawn)	-0.583
CC(C)(CN=C1NS(=O)(=O)c2ccccc21)CNC(=O)c1ccccc1	-0.214
O=C(CSc1nnc(-c2ccccn2)o1)Nc1ccc(F)cc1	-6.07
CC1CN(CCC(=O)Nc2ccc3c(c2)CCC3)CC(C)O1 (stereo not drawn)	16.2
CCCCOc1ccc(N=Cc2cccs2)cc1	0.628
O=C(CN1CCOCC1)Nc1nc2ccc(Cl)cc2s1	-0.395
O=C(CC1C(=O)NCCN1Cc1ccccc1C(F)(F)F)NCCn1cccn1 (stereo not drawn)	4.71
C/C(=N\NC(=O)CCCNc1cccc(C)c1)c1ccncc1	12.2
O=S(=O)(NCCc1ccc(Cl)cc1)c1cccc2cccnc12	7.32
Cc1ccccc1OCc1nc(C#N)c(N2CCCC2)o1	9.91
CC1CC(C)CN(c2oc(-c3ccccc3F)nc2C#N)C1 (stereo not drawn)	13

SMILES	hERG current change (%, negative = inhibition) at 1uM [%]
O=C(CCNC(=O)c1ccc([N+](=O)[O-])cc1)NCCc1ccccc1	2.9
NC(=O)N/N=C/c1sc(=O)n(-c2ccccc2)c1Cl	13.3
O=C(Cc1cccs1)Nc1ccc(F)c(S(=O)(=O)N2CCOCC2)c1	-1.04
Cc1cc2cc(C)c(NCCNC(=O)c3ccccc3)nc2cc1C	8.81
CN1CCN(c2ccccc2NC(=O)Cc2ccc(Cl)cc2)CC1	-59.4
CCCC1=C(C(=O)OCC)C2(C(=O)Nc3ccccc32)C(C#N)=C(N)O1 (stereo not drawn)	9.03
CC(=O)c1ccc(Oc2ccc(C(=O)c3ccc(C)c(C)c3)cc2[N+](=O)[O-])cc1	5.4
Cc1cc(F)ccc1NC(=O)C1CSC2(C)CCC(=O)N12 (stereo not drawn)	-0.718
COc1n[nH]c(C(=O)Nc2cc(F)ccc2C)c1[N+](=O)[O-]	16.2
COC(=O)c1ccc(CSc2ccc3nnc(-c4cccc(F)c4)n3n2)o1	-8.49
Cc1ccc(NCC(=O)N/N=C\C(Br)=C\c2ccccc2)cc1	0.112
COc1ccccc1C(=O)Nc1nnc(-c2ccccc2)s1	17.2
CCCC1C2CN(C(C)=O)CC=C2C(C#N)=C(N)C1(C#N)C#N (stereo not drawn)	-0.676
COc1ccc(C2(c3ccc(OC)cc3)NC(=O)N(CC(=O)NC3(C#N)CCCCC3)C2=O)cc1	-1.53
O=C(c1ccc(-n2cccc2)cc1)N1CCOCC1	7.49
CCOc1ccc(CCNC(=O)CCNS(=O)(=O)c2ccc3c(c2)CCN3C(C)=O)cc1OCC	10
Cc1c(CCC(=O)N2CCC[C@H]2C(=O)O)c(=O)oc2cc3oc4c(c3cc12)CCCC4	0.258
CSc1ccccc1C(=O)N1CCC(CCC(=O)NC2CC2)CC1	16.1
Cc1ccc(S(=O)(=O)N(C)C)cc1NC(=O)COC(=O)c1ccc2c(c1)NC(=O)CS2	-25.7
COc1ccc(C(C(=O)NCC2CCCO2)N(C(=O)CNC(=O)c2ccco2)c2cc(C)ccc2C)cc1OC (stereo not drawn)	9.34
CSCCC(=O)N1CCC(n2nccc2NC(=O)CCc2ccccc2)CC1	5.02
Cc1ccc(S(=O)(=O)NCc2ccccc2)cc1C(=O)N(C)Cc1ccccc1F	-8

SMILES	hERG current change (%, negative = inhibition) at 1uM [%]
CC(C)(C)OC(=O)CNC(=O)c1nc[nH]c1C(=O)N1CCN(C(=O)OC(C)(C)C)CC1	7.46
Cc1nc(C)c(-c2ccc(SCC(=O)Nc3ccc(C)c(Cl)c3)nn2)s1	18.6
COc1ccc(S(=O)(=O)NCC(c2ccc3c(c2)OCO3)N2CCOCC2)cc1C (stereo not drawn)	0.279
O=C(Cn1nnc2ccccc2c1=O)N1CCCc2ccccc21	2.01
O=C(N=C1SC2CS(=O)(=O)CC2N1c1ccc(OC(F)(F)F)cc1)C1CC1 (stereo not drawn)	13.9
CCc1cc2c(=O)n(C(C)C(=O)OC3CCCCC3)cnc2s1 (stereo not drawn)	4.66
O=C(COC(=O)Cc1c(F)cccc1Cl)NC1CCS(=O)(=O)C1 (stereo not drawn)	14.9
CC(/C=N/N1CCN(c2ccccc2)CC1)=C\c1ccccc1	1.55
Cc1cccc(Nc2nc(N3CCN(C)CC3)nc(N)c2[N+](=O)[O-])c1	-18.3
COc1ccccc1CCNS(=O)(=O)c1c(C)n(C)c(=O)n(C)c1=O	11.8
COCCOC(=O)c1c(C)n(C)c2ccc(OC(=O)c3c(OC)cccc3OC)cc12	13.4
COc1ccc(C(=O)NC2CC3CCCC(C2)N3Cc2ccccc2)cc1OC (stereo not drawn)	5.6
O=C(Nc1cc(Cl)cc(Cl)c1)C(NCCCO)c1ccccc1 (stereo not drawn)	9.88
CN(CC(=O)NCc1ccco1)S(=O)(=O)c1ccc(F)cc1	12.8
COc1ccc(OC)c(NC(=O)Cc2coc3ccc4ccccc4c23)c1	6.41
O=C(O)c1n[nH]c2c1CC(C1CCCCC1)CC2 (stereo not drawn)	16
O=C(O)c1cccc(Sc2ccc(Br)cc2C(=O)O)c1	15.6
COc1cccc(C2=NOC(C(=O)N3CCN(Cc4ccccc4)CC3)C2)c1OC (stereo not drawn)	-3.98
Cc1ccc(C)c(NC(=O)C2CCCN2/C=C/C(=O)C(F)(F)F)c1 (stereo not drawn)	9.47
CC(=O)/C(C#N)=C1\NC(=O)C(Cc2ccc(C)c(Cl)c2)S1 (stereo not drawn)	15.3
CCC(=O)c1ccc(OCC(=O)OCC(=O)N2c3ccccc3NC(=O)C2(C)C)cc1	3.95
